Experimental data published in patent US6723742B2, “Substituted 3,5-diphenyl-1,2,4-triazoles and their use as pharmaceutical metal chelators” (Novartis AG., priority 1996, dated 2004).
Several values for one entry are separate records, joined by “and”; a condition that tells them apart may be missing. Identical values can stand only once. At least one read-out could not be matched to a standard name with certainty.

System: iron-overloaded marmosets (Callithrix jacchus)
Assay: Test II: iron excretion induced in iron-overloaded marmosets (urine and feces iron)
Assay type: in vivo
Settings: iron-overloaded marmoset, p.o., 48 h after administration, pretreatment subtracted, one line per animal
Procedure: Test II: Iron Excretion Induced by Compounds of Formula I or II [Method as Described in Bergeron et al., Blood 81:2166-2173 (1993)]
Adult (1 to 11 years old) marmosets (Callithrix jacchus) of both sexes, weighing 300 to 450 g are kept in pairs at 24-27° C. and a relative humidity of at least 60% in a 12-hour light-dark cycle. The animals are maintained on a pellet diet (No. 962 Nafag, Gossau, Switzerland) supplemented with fruit-vegetable mash, enriched with a vitamin-minerals concentrate (No. 9628 Nafag) and milk. Water is available ad libitum.
Iron-overloading procedure: The animals are iron-overloaded by 3 i.p. injections of iron (III) hydroxide polyisomaltose (Anaemex, Ciba-Geigy, Basel, Switzerland) at 14-day intervals (200 mg/kg twice and 100 mg/kg at the third injection). Prior to the first exposure to an iron chelator, the marmosets are rested at least 8 weeks.
Chelators administration: The test compounds are dispersed in 40 % aqueous Cremophor RH 40 (BASF, Ludwigshafen, Germany) for administration. The applied volume is 5 ml/kg body weight.
Iron excretion studies: The monkeys receive a low-iron diet 7 days before and throughout the experiments (4 days). The diet is prepared by mixing 628.9 g of a liquid diet for primates (Nafag No. 9694), 83 g of the corresponding lipid mixture (Nafag No. 9696), 131.3 g dietary fiber (Sanacell, Nafag) and 1.0 L of distilled water. Each monkey receives 30 g of this liquid diet, mixed with 20 g milk rice per day. The iron content of this food mixture is 3.1 mg per kg. The animals are placed into acrylic glass metabolic cages especially designed for marmosets (square area of 0.2 m^2 and 55 cm high), 48 hours prior to drug administration. Marmosets live in pairs or families and react to separation from their mate. To keep the separation stress at a minimum, usually all animals from a family participate in the same experiment. By placing the animals from a social unit into adjacent metabolic cages, the animals, although separated, can see each other. Urine and feces are collected in 24-hour fractions to determine background iron excretion. After p.o. administration of the chelator, the marmosets are maintained in the same metabolic cage for another 48 hours. Urine and feces are collected in 24 hour fractions. Thus, each animal serves as its own control.
Determination of iron excretion: Urinary iron concentration is determined calorimetrically using the bathophenanthroline method (Smith et al., Analyst 77:418-422 (1952)]. Two 100 μl aliquots of each sample are placed into separate wells of a conical-bottom 96-well plate. To each well 100 μl of a 10% trichloroacetic acid solution in 3M HCl are added. After incubation at 65° C. for 4 h, the plate is centrifuged for 10 minutes at 1,300×g. A 100 μl aliquot of each supernatant is transferred into the corresponding well of a flat-bottom 96-well plate. Then, 100 μl of the iron indicator solution (6.32 ml water, 80 μl mercaptoacetic acid, 12.4 mg bathophenanthroline-disulfonic acid disodium salt, 3.16 ml saturated sodium acetate and 4.22 ml NaOH 5.9N) and blank solution (same but without bathophenanthroline) are added to the first and second aliquot of each sample, respectively. The plate is agitated and the absorbance is measured after 30 min at 535 nm with a microplate reader (UVmax, Molecular Devices). The iron concentration of each sample is calculated using a standard curve (0 to 20 μg/mi) after subtraction of the individual blank. Fecal iron in each sample is determined by flame atomic absorption spectrometry after wet-ashing the entire (24-hour) sample of feces. All results are expressed as μg iron excreted per kg body weight. For the calculation of chelator-induced iron excretion, the mean pretreatment values of each animal are subtracted from the posttreatment values.
Compounds of formula I or II are effective in this assay when administered at a dose in the range of from 10 to 200 mg/kg, e.g. 20 to 150 mg/kg. […]

O=C(Cn1nc(-c2ccccc2O)nc1-c1ccccc1O)NCC(O)CO (stereo not shown) [Example 26, 2-[3,5-Bis(2-hydroxyphenyl)-[1,2,4]triazol-1-yl]-N-(2,3-dihydroxypropyl)-acetamide]
induced iron in feces (dose 121.8 mg/kg): 914.2 µg/kg and 0 µg/kg and 141.7 µg/kg
induced iron in urine (dose 121.8 mg/kg): 88.6 µg/kg and 78.8 µg/kg and 12.6 µg/kg

CN(C)CCN(C)C(=O)Cn1nc(-c2ccccc2O)nc1-c1ccccc1O [Example 38, 2-[3,5-Bis(2-hydroxyphenyl)-[1,2,4]triazol-1-yl]-N-(2-dimethylaminoethyl)-N-methylacetamide]
induced iron in feces (dose 118.7 mg/kg): 4.8 µg/kg and 314.2 µg/kg
induced iron in urine (dose 118.7 mg/kg): 163.5 µg/kg and 132.8 µg/kg

O=C(Cn1nc(-c2ccccc2O)nc1-c1ccccc1O)NCCOCCO [Example 29, 2-[3,5-Bis(2-hydroxyphenyl)-[1,2,4]triazol-1-yl]-N-[2-(2-hydroxyethoxy)ethyl]-acetamide]
induced iron in feces (dose 119.5 mg/kg): 134.6 µg/kg and 200.7 µg/kg and 176.7 µg/kg
induced iron in urine (dose 119.5 mg/kg): 100.7 µg/kg and 45.9 µg/kg and 26.8 µg/kg

O=C(Cn1nc(-c2ccccc2O)nc1-c1ccccc1O)NCCN(CCO)CCO [Example 30, N-{2-[Bis(2-hydroxyethyl)amino]ethyl}-2-[3,5-bis(2-hydroxyphenyl)-[1,2,4]triazol-1-yl]acetamide]
induced iron in feces (dose 132.5 mg/kg): 583.0 µg/kg and 719.4 µg/kg and 396.7 µg/kg
induced iron in urine (dose 132.5 mg/kg): 44.4 µg/kg and 121.8 µg/kg and 20.3 µg/kg

CN(CCO)C(=O)Cn1nc(-c2ccccc2O)nc1-c1ccccc1O [Example 28, 2-[3,5-Bis(2-hydroxyphenyl)-[1,2,4]triazol-1-yl]-N-(2-hydroxyethyl)-N-methyl-acetamide]
induced iron in feces (dose 111.6 mg/kg): 408.5 µg/kg and 748.2 µg/kg and 87.6 µg/kg
induced iron in urine (dose 111.6 mg/kg): 18.7 µg/kg and 75.6 µg/kg and 15.3 µg/kg

O=C(Cn1nc(-c2ccccc2O)nc1-c1ccccc1O)NCCO [Example 24, 2-[3,5bis(2-hydroxyphenyl)-(1,2,4]triazol-1-yl]-N-(2-hydroxyethyl)acetamide]
induced iron in feces (dose 106.3 mg/kg): 129.6 µg/kg and 120.8 µg/kg and 446.6 µg/kg
induced iron in urine (dose 106.3 mg/kg): 37.1 µg/kg and 0.1 µg/kg and 340.0 µg/kg

OCCn1nc(-c2ccccc2O)nc1-c1ccccc1O [Example 1, 3,5-Bis(2-hydroxyphenyl)-1-(2-hydroxyethyl)-1H-[1,2,4]triazole]
induced iron in feces (dose 89.2 mg/kg): 1701.3 µg/kg and 166.3 µg/kg and 786.2 µg/kg and 246.2 µg/kg and 818.2 µg/kg
induced iron in urine (dose 89.2 mg/kg): 35.6 µg/kg and 267.8 µg/kg and 146.5 µg/kg and 153.3 µg/kg and 159.4 µg/kg and 254.5 µg/kg

COCCNC(=O)Cn1nc(-c2ccccc2O)nc1-c1ccccc1O [Example 25, 2-[3,5-Bis(2-hydroxyphenyl)-[1,2,4]triazol-1-yl]-N-(2-methoxyethyl)acetamide]
induced iron in urine (dose 110.5 mg/kg): 24.0 µg/kg and 54.1 µg/kg and 150.8 µg/kg

O=C(c1ccc(-n2nc(-c3ccccc3O)nc2-c2ccccc2O)cc1)N1CCOCC1 [Example 6, {4-[3,5-Bis(2-hydroxyphenyl)-[1,2,4]triazol-1-yl]-phenyl}morpholin-4-yl-methanone]
induced iron in feces (dose 133.2 mg/kg): 629.6 µg/kg and 327.9 µg/kg and 1298.2 µg/kg
induced iron in urine (dose 133.2 mg/kg): 24.5 µg/kg and 59.4 µg/kg and 84.6 µg/kg

O=C(O)c1ccc(-n2nc(-c3ccccc3O)nc2-c2ccccc2O)cc1 [Example 5, 4-[3,5-Bis(2-hydroxyphenyl)-[1,2,4]triazol-1-yl]benzoic acid]
induced iron in feces (dose 29.9 mg/kg): 204.8 µg/kg and 491.4 µg/kg and 99.0 µg/kg
induced iron in urine (dose 29.9 mg/kg): 49.3 µg/kg and 65.0 µg/kg and 117.5 µg/kg
induced iron in feces (dose 59.7 mg/kg): 765.4 µg/kg and 611.5 µg/kg and 844.6 µg/kg and 323.1 µg/kg and 324.7 µg/kg and 551.7 µg/kg
induced iron in urine (dose 59.7 mg/kg): 78.3 µg/kg and 72.4 µg/kg and 115.2 µg/kg and 110.4 µg/kg and 118.9 µg/kg and 62.8 µg/kg
induced iron in feces (dose 119.4 mg/kg): 2187.2 µg/kg and 2025.7 µg/kg and 709.9 µg/kg and 1171.1 µg/kg and 782.8 µg/kg
induced iron in urine (dose 119.4 mg/kg): 169.3 µg/kg and 442.2 µg/kg and 92.6 µg/kg and 87.3 µg/kg and 67.7 µg/kg

O=C(Cn1nc(-c2ccccc2O)nc1-c1ccccc1O)NCCN1CCOCC1 [Example 27, 2-[3,5-Bis(2-hydroxyphenyl)-[1,2,4]triazol-1-yl]-N-(2-morpholin-4-yl-ethyl)-acetamide]
induced iron in feces (dose 127.1 mg/kg): 470.3 µg/kg and 666.9 µg/kg and 301.9 µg/kg
induced iron in urine (dose 127.1 mg/kg): 74.7 µg/kg and 230.9 µg/kg and 81.5 µg/kg
